# From the supplement of paper PMC4604168 (melanoma cell lines)
# The other results are listed elsewhere or left out. Repeats are few or missing, and single values can be far off.
# Tested on: SkMel30
# Test: cell count relative to DMSO control; melanoma cells; higher = more viable cells
# Details: library dose: standard library concentration; 72 h
# 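Also: cells treated in 1,536-well plates, then fixed and DAPI-stained, with nuclei counted from automated high-throughput microscope images.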
row,SMILES,cell count [%]
1,"COCC[n+]1c2c(n(Cc3cnccn3)c1C)C(=O)c1ccccc1C2=O + N#Cc1c(O)c2c(-c3ccc(-c4ccccc4O)cc3)csc2[nH]c1=O [A769662] (first compound 0.002 µM, partner dose 10 µM)",48.1
2,"Nc1cccc2c1CN(C1CCC(=O)NC1=O)C2=O (stereo unspecified) [lenalidomide] + O=C(Nc1ccccc1)c1cc([N+](=O)[O-])ccc1Cl [GW9662] (first compound 5 µM, partner dose 10 µM)",87.7
3,"O=C(CCCCCCC(=O)Nc1ccccc1)NO [vorinostat] + CC(C)CCN1c2nc(Nc3cc(F)c(O)c(F)c3)ncc2N(C)C(=O)C1C [BID1870] (first compound 0.4 µM, partner dose 1 µM)",86
4,"OCc1c[nH]c2ccccc12 [Indole-3-carbinol] + COCC[n+]1c2c(n(Cc3cnccn3)c1C)C(=O)c1ccccc1C2=O [YM155] (first compound 4 µM, partner dose 0.002 µM)",73.5
5,"COCC[n+]1c2c(n(Cc3cnccn3)c1C)C(=O)c1ccccc1C2=O + O=c1cc(-c2cccc3c2Sc2ccccc2S3)oc(N2CCOCC2)c1 [KU55933] (first compound 0.002 µM, partner dose 5 µM)",52.9
6,"Nc1cccc2c1CN(C1CCC(=O)NC1=O)C2=O (stereo unspecified) [lenalidomide] + O=C(CCCCCCC(=O)Nc1ccccc1)NO [vorinostat] (first compound 5 µM, partner dose 0.4 µM)",92.9
7,"OCc1c[nH]c2ccccc12 [Indole-3-carbinol] + Cc1cc(N2CCOCC2)cc2[nH]c(-c3c(NC[C@@H](O)c4cccc(Cl)c4)cc[nH]c3=O)nc12 [BMS536924] (first compound 4 µM, partner dose 1 µM)",86.5
8,"Clc1ccc(Nc2nnc(Cc3ccncc3)c3ccccc23)cc1 [vatalanib] + NC(=O)Nc1cc(-c2cccc(F)c2)sc1C(=O)N[C@H]1CCCNC1 [AZD7762] (first compound 10 µM, partner dose 0.1 µM)",83.6

# Tested on: SkMel5
# Test: as above
# Details: library dose: standard library concentration; 72 h
row,SMILES,cell count [%]
1,"O=C(CCCCCCC(=O)Nc1ccccc1)NO [vorinostat] + O=S(=O)(c1ccccc1)N(CC(F)(F)F)c1ccc(C(O)(C(F)(F)F)C(F)(F)F)cc1 [T0901317] (first compound 0.4 µM, partner dose 7 µM)",71.6
2,"Nc1cccc2c1CN(C1CCC(=O)NC1=O)C2=O (stereo unspecified) [lenalidomide] + Cn1cncc1[C@@](N)(c1ccc(Cl)cc1)c1ccc2c(c1)c(-c1cccc(Cl)c1)cc(=O)n2C [tipifarnib] (first compound 5 µM, partner dose 0.05 µM)",80.3
3,"COCC[n+]1c2c(n(Cc3cnccn3)c1C)C(=O)c1ccccc1C2=O + Cn1cncc1[C@@](N)(c1ccc(Cl)cc1)c1ccc2c(c1)c(-c1cccc(Cl)c1)cc(=O)n2C [tipifarnib] (first compound 0.002 µM, partner dose 0.05 µM)",47.6
4,"Cn1c(Nc2ccc(C(F)(F)F)cc2)nc2cc(Oc3ccnc(-c4ncc(C(F)(F)F)[nH]4)c3)ccc21 + Oc1nc(-c2ccc(C(F)(F)F)cc2)nc2c1CSCC2 [XAV939] (first compound 0.4 µM, partner dose 10 µM)",42.5
5,"Clc1ccc(Nc2nnc(Cc3ccncc3)c3ccccc23)cc1 [vatalanib] + C=CCn1c(=O)c2cnc(Nc3ccc(N4CCN(C)CC4)cc3)nc2n1-c1cccc(C(C)(C)O)n1 [MK1775] (first compound 10 µM, partner dose 0.1 µM)",43.6
6,"OCc1c[nH]c2ccccc12 [Indole-3-carbinol] + C[C@@H]1CCN(C(=O)CC#N)C[C@@H]1N(C)c1ncnc2[nH]ccc12 [CP690550] (first compound 4 µM, partner dose 5 µM)",78.6
7,"Cn1c(Nc2ccc(C(F)(F)F)cc2)nc2cc(Oc3ccnc(-c4ncc(C(F)(F)F)[nH]4)c3)ccc21 + Nc1cccc2c1CN(C1CCC(=O)NC1=O)C2=O [lenalidomide] (first compound 0.4 µM, partner dose 5 µM)",41.7
8,"COCC[n+]1c2c(n(Cc3cnccn3)c1C)C(=O)c1ccccc1C2=O + O=C(O)C(=O)Nc1sc2c(c1C(=O)O)CCNC2 [TCS401] (first compound 0.002 µM, partner dose 8.33333 µM)",40.1
